The target in test [1] is T1, human CD21 protein (human, UniProt P20023 21-971, limits assumed).
T1 construct: the Biacore set-up is not described; also called huCD21; CR2
T1 sequence (looked up): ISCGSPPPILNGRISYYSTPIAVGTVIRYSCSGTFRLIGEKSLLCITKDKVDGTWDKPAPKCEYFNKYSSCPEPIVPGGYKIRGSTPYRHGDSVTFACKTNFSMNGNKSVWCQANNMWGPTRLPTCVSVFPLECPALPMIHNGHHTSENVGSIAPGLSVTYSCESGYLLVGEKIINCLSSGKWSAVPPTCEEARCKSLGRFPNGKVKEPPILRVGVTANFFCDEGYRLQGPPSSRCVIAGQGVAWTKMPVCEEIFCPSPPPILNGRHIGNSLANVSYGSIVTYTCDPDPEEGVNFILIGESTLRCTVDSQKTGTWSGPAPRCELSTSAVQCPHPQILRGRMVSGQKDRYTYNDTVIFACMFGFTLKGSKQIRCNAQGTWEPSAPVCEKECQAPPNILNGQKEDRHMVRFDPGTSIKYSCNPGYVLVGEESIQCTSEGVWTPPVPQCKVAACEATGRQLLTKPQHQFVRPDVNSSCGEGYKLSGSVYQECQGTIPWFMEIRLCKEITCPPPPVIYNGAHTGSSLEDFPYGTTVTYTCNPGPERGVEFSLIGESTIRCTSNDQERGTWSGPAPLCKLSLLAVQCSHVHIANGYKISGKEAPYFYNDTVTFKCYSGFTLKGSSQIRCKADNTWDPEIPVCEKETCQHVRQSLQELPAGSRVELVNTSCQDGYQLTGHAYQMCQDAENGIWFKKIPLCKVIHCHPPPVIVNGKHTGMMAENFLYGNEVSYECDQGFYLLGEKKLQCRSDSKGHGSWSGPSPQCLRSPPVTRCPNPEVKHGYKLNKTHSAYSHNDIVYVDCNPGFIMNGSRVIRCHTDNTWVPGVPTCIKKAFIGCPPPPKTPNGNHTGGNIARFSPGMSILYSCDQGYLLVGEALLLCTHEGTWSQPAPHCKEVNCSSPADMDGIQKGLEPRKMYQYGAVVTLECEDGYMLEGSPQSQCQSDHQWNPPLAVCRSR
The test can be described thus: affinity KD; method not restated (Biacore elsewhere). In general terms: In SPR one partner is held on a chip, and binding of the other changes the refractive index at the surface.

Test [2] concerns the target T1, human CD21 protein. The description is as above. The source holds these as a separate data set.
In test [3] the target is T2, human CD21 on Raji B cells or primary B cells (human, UniProt P20023 21-1033).
T2 sequence (looked up): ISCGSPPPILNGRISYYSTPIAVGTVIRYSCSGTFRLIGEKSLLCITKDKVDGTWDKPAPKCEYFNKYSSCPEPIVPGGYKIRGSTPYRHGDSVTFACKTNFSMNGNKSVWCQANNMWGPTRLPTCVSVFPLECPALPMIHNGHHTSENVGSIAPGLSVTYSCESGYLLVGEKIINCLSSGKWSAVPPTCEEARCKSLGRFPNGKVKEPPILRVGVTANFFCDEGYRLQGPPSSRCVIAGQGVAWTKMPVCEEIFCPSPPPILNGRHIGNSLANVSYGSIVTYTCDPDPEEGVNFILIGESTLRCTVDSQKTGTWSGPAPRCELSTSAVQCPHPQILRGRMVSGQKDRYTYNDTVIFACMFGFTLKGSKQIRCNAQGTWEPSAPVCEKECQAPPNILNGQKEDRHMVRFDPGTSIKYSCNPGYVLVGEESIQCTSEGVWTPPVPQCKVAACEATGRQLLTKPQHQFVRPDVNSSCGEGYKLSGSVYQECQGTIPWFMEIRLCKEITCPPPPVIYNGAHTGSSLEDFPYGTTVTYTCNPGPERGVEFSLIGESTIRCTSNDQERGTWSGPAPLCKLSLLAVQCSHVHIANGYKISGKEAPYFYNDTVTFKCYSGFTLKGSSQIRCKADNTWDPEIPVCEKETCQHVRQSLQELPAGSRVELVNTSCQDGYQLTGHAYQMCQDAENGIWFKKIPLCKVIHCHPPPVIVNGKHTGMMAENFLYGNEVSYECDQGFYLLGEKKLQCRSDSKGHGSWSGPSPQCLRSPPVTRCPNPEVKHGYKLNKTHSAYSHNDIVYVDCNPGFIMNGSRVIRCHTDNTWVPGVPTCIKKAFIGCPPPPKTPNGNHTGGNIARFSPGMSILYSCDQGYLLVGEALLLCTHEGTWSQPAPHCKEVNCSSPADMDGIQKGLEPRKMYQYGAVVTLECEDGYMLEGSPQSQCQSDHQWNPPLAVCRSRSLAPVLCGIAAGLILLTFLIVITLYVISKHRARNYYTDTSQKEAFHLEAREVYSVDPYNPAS
The test can be described thus: cell-based or functional assay.

In test [4] the target is T2, human CD21 on Raji B cells or primary B …. The test can be described thus: cell-based or functional assay. The source holds these as a separate data set.

Like-named read-outs stand apart in the source and are kept apart here.

These results are taken from patent publication US20240376225A1 (CHILDREN S MEDICAL CENTER, published 2024).

As a reminder, the Kd is the equilibrium constant for the complex coming apart. Higher therefore signals weaker binding.

B1: Ab652 (antibody, human IgG1, kappa)
heavy: QVQLVQSGAEVKKPGSSVKVSCKASGGELSSYAISWVRQAPGQGLEWMGRIIPILGIANYAQKFQGRVTITADKSTSTAYMELSSLRSEDTAVYYCAREEDISGYYQDWGQGTLVTVSSASTKGPSVFPLAPSSKSTSGGTAALGCLVKDYFPEPVTVSWNSGALTSGVHTFPAVLQSSGLYSLSSVVTVPSSSLGTQTYICNVNHKPSNTKVDKKVEPKSCDKTHTCPPCPAPEAAGAPSVFLFPPKPKDTLMISRTPEVTCVVVDVSHEDPEVKFNWYVDGVEVHNAKTKPREEQYNSTYRVVSVLTVLHQDWLNGKEYKCKVSNKALPAPIEKTISKAKGQPREPQVYTLPPSREEMTKNQVSLTCLVKGFYPSDIAVEWESNGQPENNYKTTPPVLDSDGSFFLYSKLTVDKSRWQQGNVFSCSVMHEALHNHYTQKSLSLSPG
light: EIVMTQSPATLSVSPGERATLSCRAGQSISSYLAWYQQKPGQAPRLLIYDASSRATGIPARFSGSGSGTEFTLTISSLQSEDFAVYYCQQYEYWYSFGQGTKLEIKRTVAAPSVFIFPPSDEQLKSGTASVVCLLNNFYPREAKVQWKVDNALQSGNSQESVTEQDSKDSTYSLSSTLTLSKADYEKHKVYACEVTHQGLSSPVTKSFNRGEC
notes: IgG1; same as Ab658 but without the C-terminal Lys on the heavy chain
Take B1: the Kd in test [1] and in test [2] was 0.013 nM throughout. Also, the “pAKT inhibition, IC50, nM; Primary B cells” value in test [3] and in test [4] was 6.31 nM throughout.

B2: Ab658 (antibody, human IgG1, kappa)
heavy: QVQLVQSGAEVKKPGSSVKVSCKASGGELSSYAISWVRQAPGQGLEWMGRIIPILGIANYAQKFQGRVTITADKSTSTAYMELSSLRSEDTAVYYCAREEDISGYYQDWGQGTLVTVSSASTKGPSVFPLAPSSKSTSGGTAALGCLVKDYFPEPVTVSWNSGALTSGVHTFPAVLQSSGLYSLSSVVTVPSSSLGTQTYICNVNHKPSNTKVDKKVEPKSCDKTHTCPPCPAPEAAGAPSVFLFPPKPKDTLMISRTPEVTCVVVDVSHEDPEVKFNWYVDGVEVHNAKTKPREEQYNSTYRVVSVLTVLHQDWLNGKEYKCKVSNKALPAPIEKTISKAKGQPREPQVYTLPPSREEMTKNQVSLTCLVKGFYPSDIAVEWESNGQPENNYKTTPPVLDSDGSFFLYSKLTVDKSRWQQGNVFSCSVMHEALHNHYTQKSLSLSPGK
light: B1 light
notes: fully human IgG1 (effector-less 3A mutant); Ab652 with C-terminal Lys on the heavy chain; also called Ab652 + CTK; Ab658 = Ab652 + CTK
Take B2: the Kd in test [1] and in test [2] was 0.011 nM throughout. For the same molecule, the “pAKT inhibition, IC50, nM; Primary B cells” value in test [3] and in test [4] was 1.66 nM in each case.
